Hit rate of the full screen: of about 48,000 compounds, about 1,200 (2.5%) were called active. Inconclusive results (about 2%) are left out.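 How the source made its calls: active means activation of at least 60% and not above a set upper limit (about 1 call in 100 departs from these limits); inconclusive means activation of 40% to 60%, or above that upper limit; inactive means activation under 40%.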 This is one part of the list.
target: Probable G-protein coupled receptor 32 (Homo sapiens) (UniProt O75388); experiment: qHTS for Agonists of Human Resolvin D1 Receptor DRV1; conditions: CHO-K1 GPR32 beta-arrestin PathHunter luminescence, 90 min; at 76.9 µM; stronger effect = higher value; zero percent set by DMSO-only wells; further: 0% is about no effect
Chain of UniProt O75388 (O75388 whole entry, looked up): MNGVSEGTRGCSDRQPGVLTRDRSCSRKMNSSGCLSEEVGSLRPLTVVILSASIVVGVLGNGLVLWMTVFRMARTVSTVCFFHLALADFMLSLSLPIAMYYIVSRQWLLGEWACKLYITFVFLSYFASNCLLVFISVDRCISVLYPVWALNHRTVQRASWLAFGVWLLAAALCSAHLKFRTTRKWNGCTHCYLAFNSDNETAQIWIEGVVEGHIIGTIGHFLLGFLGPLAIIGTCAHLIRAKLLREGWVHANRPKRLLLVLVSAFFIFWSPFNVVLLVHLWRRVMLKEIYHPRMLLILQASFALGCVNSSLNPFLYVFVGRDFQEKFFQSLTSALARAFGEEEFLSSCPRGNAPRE
Outline: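 Engineered CHO-K1 line co-expressing GPR32-ProLink and EA-beta-arrestin. Compound treatment lasted 90 min at 37 °C. Luminescence was recorded after 1 h with substrate at ambient temperature, relative to DMSO basal wells.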

Row | Structure (SMILES) | activation
1 | CNC(=O)c1cccc(-n2c(C)nc3cccnc32)c1C | inactive: -1.99%
2 | O=c1c2cccnc2n(Cc2ccc(Cl)cc2)c(=O)n1Cc1ccc(F)cc1 | inactive: -7.92%
3 | Cc1cc(N2CCN(C)CC2)nc2ccc(NC(=O)c3ccccc3F)cc12 | inactive: -1.01%
4 | CC(=O)Nc1ccc(S(=O)(=O)N2CCN(c3ccc(C)c(C)c3)CC2)cc1 | inactive: -0.419%
5 | Cc1cccc(NC(=O)Nc2ccc(C)c(C)c2)n1 | inactive: 11.1%
6 | O=C(CSc1nnc2[nH]c(=O)cc(-c3ccccc3)n12)Nc1ccccc1C(F)(F)F | inactive: 8.97%
7 | Cc1cc(OCC(=O)Nc2ccc(C(=O)OC3CCCCC3)cc2)ccc1Cl | inactive: 5.39%
8 | CCOc1ccc(NC(=O)C(=O)NCCc2sc(-c3ccc(C)cc3)nc2C)cc1 | inactive: 7.79%
9 | O=C(c1c[nH]c2ccc(S(=O)(=O)Nc3ccccc3F)cc2c1=O)N1CCCCCC1 | inactive: -6.38%
10 | O=C(/C=C/c1ccc(O)c(O)c1)OCCc1ccccc1 | inactive: 2.86%
11 | CNC(=O)C1CCC(Cn2c(=O)c3sccc3n(CC(=O)Nc3cc(C)cc(C)c3)c2=O)CC1 (centres undefined) | inactive: 2.86%
12 | COc1cccc(NC(=O)Cn2nc(-c3ccncc3)ccc2=O)c1 | inactive: -18.2%
13 | CC1CCCCN1CCCNC(=O)c1sc2ncccc2c1-n1cccc1 (centres undefined) | inactive: -14.8%
14 | CCC(C)n1c(=N)c(C(=O)NCc2ccco2)cc2c(=O)n3cc(C)ccc3nc21 (centres undefined) | inactive: 8.05%
15 | COc1ccc(OC)c(NC(=O)C2CCN(S(=O)(=O)c3c(C)noc3/C=C/c3ccc(C)cc3)CC2)c1 | inactive: 5.74%
16 | COC(=O)c1sc(N2C(=O)c3oc4cc(C)c(C)cc4c(=O)c3C2c2ccccc2F)nc1C (centres undefined) | inactive: 2.99%
17 | CCCN1C(=O)c2[nH]nc(-c3ccc(OC)cc3)c2C1c1ccccn1 (centres undefined) | inactive: -1.5%
18 | Cc1cccc(Cn2c(CN3CCC(C(=O)NCc4ccccc4Cl)CC3)cc3ccccc32)c1 | inactive: -55.7%
19 | O=S(=O)(NCc1csc(-c2ccccc2)n1)c1ccccc1 | inactive: -4.98%
20 | COc1ccc(Cn2c(CNS(=O)(=O)c3ccc(Cl)s3)nc3cccnc32)cc1 | inactive: -22.1%
21 | Cc1ccc(C(=O)Nc2cc(-c3nc4cc(Cl)ccc4o3)ccc2C)c(C)c1 | inactive: 27.2%

Row | Structure (SMILES) | activation
22 | O=C(c1cnn(-c2ccc(F)cc2)c1-n1cccc1)N1CCN(c2cccc(Cl)c2)CC1 | inactive: 11.5%
23 | CCOCCCNC(=O)C1CCN(c2nc3ccc(Cl)cc3[nH]2)CC1 | inactive: -2.91%
24 | COc1ccc(CN2CCc3nc(N4CCN(c5ccc(F)cc5)CC4)ncc3C2)c(OC)c1OC | inactive: -5.67%
25 | CCc1cccc(C)c1NC(=O)c1cc2ccccc2o1 | inactive: -7.44%
26 | Cn1cc(S(=O)(=O)c2ccccc2)c(=O)c2cc(F)c(N3CCCC3)cc21 | inactive: -3.93%
27 | O=C(NCc1ccccc1)c1ccc(CSc2nc3cccnc3n2Cc2ccccc2)cc1 | inactive: -3.37%
28 | COc1ccc(CCNC(=O)c2cc3c(=O)n4ccccc4nc3n2C)cc1 | inactive: -4.08%
29 | CC(=O)OCC(CCn1cnc2cnc(N)nc21)COC(C)=O | inactive: 0.199%
30 | NNc1nncc2ccccc12 | inactive: 27.1%
31 | COc1ccc(NC(=O)Cn2cc(S(=O)(=O)c3ccccc3)c(=O)c3cc(C)ccc32)cc1Cl | inactive: -1.79%
32 | CCC(Cn1nnc2ccccc2c1=O)NC(=O)Nc1cc(OC)cc(OC)c1 (centres undefined) | inactive: -30.4%
33 | Cc1cc2c(cc3c(SCc4cccc(Cl)c4)nnc(C)n32)o1 | inactive: -33.1%
34 | CCC(=O)N1CCc2cc(Br)cc(S(=O)(=O)N3CCC(C(=O)Nc4cccc(C)c4)CC3)c21 | inactive: -5.94%
35 | COc1cccc(N2CCN(C(=O)c3ccc4c(Cl)c5c(nc4c3)CCCC5)CC2)c1 | inactive: -14.7%
36 | C[C@H](CN1CCCC1)C(=O)c1ccc(C(F)(F)F)cc1 | inactive: 6.94%
37 | CCc1ccc(NC(=O)CSC2=Nc3ccccc3C3=NC(CC(=O)NCc4cccs4)C(=O)N23)cc1 (centres undefined) | inactive: -9.37%
38 | CCN(CC)C(=O)c1c(-c2ccccc2)c(-c2ccccc2)nn(C)c1=O | inactive: -17.9%
39 | CC(=O)N1CCCc2cc(S(=O)(=O)N3CCC(C(=O)Nc4cccc(Cl)c4C)CC3)ccc21 | inactive: -2.39%
40 | COc1ccc(N2CCN(C(=O)CCn3nc(C)c(S(=O)(=O)N4CCCC4)c3C)CC2)cc1 | inactive: -14%
41 | O=C(CSc1nnc(-c2cccs2)o1)Oc1ccccc1 | inactive: 1.58%
42 | CCN(CC)CCCNC(=O)c1ccc(-c2nc(CN3CCc4ccccc43)c(C)o2)cc1 | active: 95.3%

Row | Structure (SMILES) | activation
43 | O=C(CSc1nnc(-c2ccccc2)o1)c1cccc([N+](=O)[O-])c1 | inactive: 23.2%
44 | O=C(Cn1ncc2c3ccccc3n(Cc3ccc(Cl)cc3)c2c1=O)NCc1ccccn1 | inactive: 4.07%
45 | NC(=O)c1ccccc1NC(=O)c1ccc(-c2ccc(Br)cc2)o1 | inactive: 5.01%
46 | COC(=O)c1cc(S(=O)(=O)N2CCN(c3cccc(C)c3)C(C)C2)cn1C (centres undefined) | inactive: -22.7%
47 | CCOc1ccc(C(=O)Nc2ccc3nc(SCCOc4ccccc4)sc3c2)cc1 | inactive: 1.37%
48 | CCc1ccc(-n2cnc3cc(C(=O)NCc4ccc(C)cc4)ccc32)cc1 | inactive: -6.44%
49 | CCN(CC)CCCNC(=O)c1ccc2c(=O)n(CCc3ccccc3)c(=O)[nH]c2c1 | inactive: -7.45%
50 | CC(=O)c1cccc(NC(=O)Cn2nc(C)n3cccc3c2=O)c1 | inactive: -7.87%
51 | CCOC(=O)c1c(C)[nH]c(CCC(=O)NCc2ccc(CC)cc2)c1C | inactive: -13.3%
52 | Cc1ccc(S(=O)(=O)Nc2cc3c(cc2NCc2ccccc2)n(C)c(=O)n3C)c(C)c1 | inactive: 19.1%
53 | Fc1cccc(-n2ncc3c2ncn2nc(COc4ccc(Cl)cc4)nc32)c1 | inactive: 0.854%
54 | CCCC1=Nc2cc(C(=O)NCc3ccc(OC)cc3)ccc2Sc2ccc(C)cc21 | inactive: -3.55%
55 | O=C(CSCc1cccc(F)c1)NCc1ccccc1 | inactive: -5.99%
56 | O=C(CCc1nc(CN2CCN(S(=O)(=O)c3ccc(Cl)cc3)CC2)no1)N1CCCCC1 | inactive: -3.35%
57 | Cc1cccc(Cn2c(SCc3ccc(C(=O)NCCc4ccccc4)cc3)nc3ccncc32)c1 | inactive: -1.32%
58 | CCc1cccc(C)c1NC(=O)Cn1ccn(-c2cccc(OC)c2)c(=O)c1=O | inactive: -5.47%
59 | COc1ccc(-c2cc3nc(C)c(CCC(=O)Nc4ccccc4C(C)=O)c(C)n3n2)c(OC)c1 | inactive: 29.1%
60 | COc1ccc(-n2c(=O)c3c(c4cc(OC)ccc4n3C)n(Cc3cccc(OC)c3)c2=O)cc1 | inactive: -3.9%
61 | O=C(CCC1N=C2c3ccccc3N=C(SCc3ccc(F)cc3)N2C1=O)NCc1ccc(F)cc1 (centres undefined) | inactive: 2.75%
62 | C1CCN2C[C@@H]3C[C@@H](CN4CCCC[C@@H]34)[C@H]2C1 | inactive: -9.08%
63 | CCOc1ccc(-c2nc(CSCC(=O)N3CCN(c4ccc(F)cc4)CC3)c(C)o2)cc1 | inactive: -14.1%

Row | Structure (SMILES) | activation
64 | CCOc1ccc(C(=O)NCCn2cc(SCC(=O)Nc3ccc4c(c3)OCCO4)c3ccccc32)cc1 | inactive: -5.68%
65 | Cc1nc2scc(C)n2c(=O)c1S(=O)(=O)Nc1ccc(N2CCOCC2)c(Cl)c1 | inactive: 6.51%
66 | CN1CCc2c(sc3c2C(=O)NC(c2ccc(OC(=O)c4ccc(C(C)(C)C)cc4)cc2)N3)C1 (centres undefined) | active: 64.5%
67 | O=C(NCCc1c[nH]c2ccccc12)c1cccnc1 | inactive: 17.1%
68 | COCCCNc1oc(/C=C/c2cc(OC)c(OC)c(OC)c2)nc1C#N | inactive: -13.4%
69 | CCN(CC)C(=O)c1sc2c(c1C)c(=O)n(-c1ccc(Cl)c(Cl)c1)c(=O)n2Cc1ccccc1C#N | inactive: -2.46%
70 | COc1cc(NC(=O)Cn2c(=O)n(Cc3ccco3)c(=O)c3sc4ccccc4c32)cc(OC)c1 | inactive: 10.4%
71 | CCC(C)NC(=O)c1cc(-c2cccc(OC)c2)on1 (centres undefined) | inactive: 11.7%
72 | Cc1ccc(C)c(N2CCN(C(=O)C3CCN(c4nc5ccc(C)cc5[nH]4)CC3)CC2)c1 | inactive: 46.4%
73 | Cc1cccc(NC(=O)CSc2ncc3c(n2)-c2ccccc2N(Cc2ccc(F)cc2)S3(=O)=O)c1C | inactive: -16.6%
74 | Cc1ccc(N2CCN(C(=O)c3c(C)oc4ncn(CC(C)C)c(=O)c34)CC2)c(C)c1 | inactive: 5.45%
75 | Cc1ccc(Oc2c(C(F)(F)F)oc3c(CN4CCC(C)CC4)c(O)ccc3c2=O)cc1 | inactive: -9.68%
76 | CCc1cccc(NC(=O)CCC(=O)N2CCSc3ccccc32)c1 | inactive: -21.6%
77 | CN(C)c1ccc(-c2nc(-c3cc4cc(Cl)ccc4oc3=O)cs2)cc1 | inactive: -10.5%
78 | Cc1cc(-c2ccc(C)c(S(=O)(=O)N3CCN(c4cccc(C(F)(F)F)c4)CC3)c2)on1 | inactive: -3.23%
79 | Cc1cccc(CCNC(=O)c2ccc3c(c2)N(Cc2ccccc2F)C(=O)c2ccccc2S3)c1 | inactive: -20.1%
80 | CCC(=O)N1CCc2cc(Br)cc(S(=O)(=O)CCC(=O)NCc3ccc(Cl)cc3)c21 | inactive: -17.1%
81 | Cc1nc(Oc2ccc(F)cc2Cl)c2oc3ccccc3c2n1 | inactive: -12.9%
82 | CCOc1ccccc1NC(=O)CN(C)S(=O)(=O)c1ccc2nc(C)sc2c1 | inactive: -18.4%
83 | CC(C)Oc1ccc(C(=O)N(Cc2ccco2)c2ccccn2)cc1 | inactive: 2.46%
84 | Cc1ccc(NC(=O)CCc2nnc3n(C)c(=O)c4sccc4n23)cc1C | inactive: 12.6%
